Measured values reported in article PMC7819943, “Rice protein-binding microarrays: a tool to detect cis-acting elements near promoter regions in rice”.
The other results are listed elsewhere or left out.

biological target: T1, OsWOX13 (Oryza sativa, UniProt Q5QMM3 1-267); experiment: protein-binding microarray (RPBM); PBS, 2% BSA, 51.3 ng/ul salmon testes DNA, 50 uM zinc acetate, 200 nM TF, 25 C, 1 h; high values mean tight binding; conditions: protein: recombinant; tags: N-terminal polyhistidine and DsRed monomer fusion (pET32a); label: CyDye5-dUTP incorporated in the synthesized complementary strand; 3' TTTTT single-stranded linker to array surface; dsDNA, one strand shown
T1 sequence: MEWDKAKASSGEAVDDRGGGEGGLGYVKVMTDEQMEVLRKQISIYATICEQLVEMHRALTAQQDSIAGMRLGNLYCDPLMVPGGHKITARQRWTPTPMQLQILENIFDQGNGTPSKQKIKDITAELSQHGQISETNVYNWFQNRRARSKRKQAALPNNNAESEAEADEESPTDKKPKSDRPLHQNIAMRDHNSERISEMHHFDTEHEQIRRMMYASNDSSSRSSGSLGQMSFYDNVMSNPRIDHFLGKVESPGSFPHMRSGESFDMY
How it was run: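 The binding signal is fluorescence intensity per array feature (arbitrary units). Readings came from an Axon 4000B scanner after a washed, 2% BSA-blocked, double-stranded custom Agilent array had been incubated for 1 h at 25 °C with 200 nM protein and 50 µM zinc acetate. The protein was a Ni–NTA-purified transcription factor fused N-terminally to polyhistidine and DsRed, expressed in E. coli BL21-CodonPlus.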

Sequence | binding signal
GATCATACAGGTTAATTGCGCATGGCACATCCAACGGTACCGGAGTCACCTAGTGCAG | 5980 fluorescence intensity (a.u.)
TTACGTAATTATAATTTATTTTGTTATGGGTTGTTTTATCCGGAGTCACCTAGTGCAG | 43100 fluorescence intensity (a.u.)
CGTTGACATGGACGAGTTCGAGGAGAACGGTGGTGTGGTGCGGAGTCACCTAGTGCAG | 7170 fluorescence intensity (a.u.)
GCAAATTTAAATCACATCAACTTATCTCTACTACTTTAAACGGAGTCACCTAGTGCAG | 14600 fluorescence intensity (a.u.)
AATTTCACATAGATGATTGAACAAATAATTTCTCAGTGTACGGAGTCACCTAGTGCAG | 31200 fluorescence intensity (a.u.)
TATGTAGGCTATGATTGAATGCCACAATATTGCAATGTCACGGAGTCACCTAGTGCAG | 12900 fluorescence intensity (a.u.)
ACTCAAATTTAAATTTGCAATATAAAATTTGAAAACTTTCCGGAGTCACCTAGTGCAG | 14200 fluorescence intensity (a.u.)
GCCACAATTAAATTTAAAAGATTTGTCTCGCAATTTACACCGGAGTCACCTAGTGCAG | 7930 fluorescence intensity (a.u.)
TTACATCGTAACTGTAGTATAATTATATTATAACTTATAACGGAGTCACCTAGTGCAG | 3150 fluorescence intensity (a.u.)
CCTAATAAACGTTGAGTGTTATAATCAGCTGTAAACGATGCGGAGTCACCTAGTGCAG | 5940 fluorescence intensity (a.u.)
TTGACAAGTTAATTATTAATTAACAACAATATATTTAATTCGGAGTCACCTAGTGCAG | 16300 fluorescence intensity (a.u.)
ACTCTTTACATCAGATAATGATTGGATAAACTCAATCAAACGGAGTCACCTAGTGCAG | 11900 fluorescence intensity (a.u.)
TAATTTATTTAATAATTACTAAGTAGTAAAACCTAGTATGCGGAGTCACCTAGTGCAG | 3370 fluorescence intensity (a.u.)
CAATCTGTTAGTAACATTAATTAATTGTGGATTAATAAAACGGAGTCACCTAGTGCAG | 10200 fluorescence intensity (a.u.)
AACATAGATAGATGATCCCCATGACCTTGCATGCCATTTCCGGAGTCACCTAGTGCAG | 4080 fluorescence intensity (a.u.)
ATTTTGGTTTCTGTTATTGACAAAACAACTCACTCATTCCCGGAGTCACCTAGTGCAG | 3480 fluorescence intensity (a.u.)
GAAATTACGTGAAACTTACATACAAGTTACAATGTAGTTACGGAGTCACCTAGTGCAG | 3320 fluorescence intensity (a.u.)
CGGGCTAAAATTTGAATTTCAGTTTAAATTATTTTAAAGTCGGAGTCACCTAGTGCAG | 3690 fluorescence intensity (a.u.)
CATAGCAAATAACTAGATTAATAGACCGGCATGATTTTCTCGGAGTCACCTAGTGCAG | 3810 fluorescence intensity (a.u.)
GTTATCTCTGATTGCAACATCTTGCCGTGTCCACCGCTGTCGGAGTCACCTAGTGCAG | 17400 fluorescence intensity (a.u.)
ACATTGATTTGTATGGCAAAATAGCCATTTTCGTCCCTAACGGAGTCACCTAGTGCAG | 33100 fluorescence intensity (a.u.)

Sequence | binding signal
CTCAGATAATTGCCTTCCATGTGTTGTTTTGTTAGATGTGCGGAGTCACCTAGTGCAG | 30700 fluorescence intensity (a.u.)
GAAAGGACCCTTCAATTATGTATGTGTTAATGTGTACACACGGAGTCACCTAGTGCAG | 5280 fluorescence intensity (a.u.)
ATGATTGCATCTTTTCTTGACAAACTTCTCTTTTGGTTGCCGGAGTCACCTAGTGCAG | 34900 fluorescence intensity (a.u.)
ACTTAATAATTAAGAGGCAACATGTATAATACATTACCTCCGGAGTCACCTAGTGCAG | 14700 fluorescence intensity (a.u.)
ATCCATAACTGACACAAGCATTATCACGACGTTTTCACGGCGGAGTCACCTAGTGCAG | 10400 fluorescence intensity (a.u.)
ATTTGGTGATAGGATCGATTTAATTGCTAGCTGAGGTGATCGGAGTCACCTAGTGCAG | 11000 fluorescence intensity (a.u.)
CTTCCCTGTCAATTCAAGATGCATTACATCTACTCTCTGTCGGAGTCACCTAGTGCAG | 5710 fluorescence intensity (a.u.)
TAGATTGAAGTGTTAAAACATTGATTTGATGTTCTATAGTCGGAGTCACCTAGTGCAG | 26300 fluorescence intensity (a.u.)
GTATTATTCTGATTTCAAATTACCCGATCTTACATAACATCGGAGTCACCTAGTGCAG | 4820 fluorescence intensity (a.u.)
CTAATCATCATCATCAGTTCATCACCAGTCGTCGTCAGGGCGGAGTCACCTAGTGCAG | 4280 fluorescence intensity (a.u.)
GCAAATTAAAGAAGGAAATATATATATAGGAGCTACGCAGCGGAGTCACCTAGTGCAG | 4190 fluorescence intensity (a.u.)
AAAATTCCATGTTAATTTATAATTAATATAGCTTATGTAACGGAGTCACCTAGTGCAG | 15900 fluorescence intensity (a.u.)
AAAATAGCAAATACTTAATTAATTACGTGCTAATAGGCCGCGGAGTCACCTAGTGCAG | 17100 fluorescence intensity (a.u.)
TAAAATTGAAACATAATATAAGATATGGTCAAACTTGAAACGGAGTCACCTAGTGCAG | 13800 fluorescence intensity (a.u.)
CCTATGATTTTGTGGTAATGTTTGAGGGTATAAACAAAGGCGGAGTCACCTAGTGCAG | 21600 fluorescence intensity (a.u.)
CTCTTAATAGTTTGGATGACAGTTTCATCCTACGTGACATCGGAGTCACCTAGTGCAG | 9460 fluorescence intensity (a.u.)
ATGCCAAATTTGACATCATGGTGACATTTAGAACATAAAACGGAGTCACCTAGTGCAG | 4060 fluorescence intensity (a.u.)
TCTTAATGTCCTCTAATCATGCGCCAAATATGATCCATCGCGGAGTCACCTAGTGCAG | 7160 fluorescence intensity (a.u.)
ACGAGATGAACACTAATTAGCAGAAGAAATTTGTTTAAATCGGAGTCACCTAGTGCAG | 13300 fluorescence intensity (a.u.)
AATTACATAATTTTAATACGAAGATGAATGATCAAATATACGGAGTCACCTAGTGCAG | 3410 fluorescence intensity (a.u.)
TCAGCTGGTTGATAATTAACTAATAACCAGCCAAGCTAGACGGAGTCACCTAGTGCAG | 4340 fluorescence intensity (a.u.)
